According to US6448281B1 (Boehringer Ingelheim (Canada) Ltd., priority 2000, dated 2002):

Target: hepatitis C virus RNA dependent polymerase (NS5B) (Hepacivirus hominis (Hepatitis C virus), UniProt P26663)
Experiment: Inhibition of NS5B RNA dependent RNA polymerase activity (SPA, UMP-[5,6 3H] incorporation)
[1] = IC50 μM, first compound table (printed title TABLE 10; Table 1)

## CC(CC(=O)Nc1cc(C(=O)O)ccc1O)NC(=O)c1ccc2c(c1)nc(-c1ccoc1)n2C1CCCCC1 (stereo not drawn) [Entry 1167]
[1]
  IC50: 1 to 5 µM

## O=C(N[C@@H](Cc1c[nH]c2ccc(O)cc12)C(=O)O)c1ccc2c(c1)nc(-c1nc3ccccc3nc1O)n2C1CCCCC1 [Entry 2115]
IC50 μM, Table 2
  IC50: 5 to 10 µM

## O=C(N[C@@H](Cc1c[nH]c2ccc(O)cc12)C(=O)NCCO)c1ccc2c(c1)nc(-c1ccoc1)n2C1CCCCC1 [Entry 13016, 1-Cyclohexyl-2-furan-3-yl-1H-benzimidazole-5-carboxylic Acid [(S)-1-(2-Hydroxy-ethylcarbamoyl)-2-(5-hydroxy-1H-indol-3-yl)-ethyl]-amide]
IC50, Table 13
  IC50: < 1 µM

## O=C(O)COc1c(F)cc(CC(NC(=O)c2ccc3c(c2)nc(-c2ccoc2)n3C2CCCCC2)C(=O)O)cc1F (racemic) [Entry 1144, 3-(4-Carboxymethoxy-3,5-difluoro-phenyl)-2-{[1-(1-cyclohexyl-2-furan-3-yl-1H-benzimidazol-5-yl)-methanoyl]-amino}-propionic Acid]
[1]
  IC50: 1 to 5 µM

## CC(C)CCc1nc2cc(C(=O)N[C@@H](Cc3c[nH]c4ccc(O)cc34)C(=O)O)ccc2n1C1CCCCC1 [Entry 12014]
IC50, Table 12
  IC50: < 1 µM

## O=C(N[C@@H](Cc1c[nH]c2ccc(O)cc12)C(=O)O)c1ccc2c(c1)nc(-c1cc(O)cc(O)c1)n2C1CCCCC1 [Entry 2100]
IC50 μM, Table 2
  IC50: 1 to 5 µM

## O=C(N[C@@H](Cc1c[nH]c2ccc(O)cc12)C(=O)O)c1ccc2c(c1)nc(-c1ccsc1)n2C1CCCCC1 [Entry 12008]
IC50, Table 12
  IC50: < 1 µM

## O=C(O)C=Cc1ccc(CN2CCCC(NC(=O)c3ccc4c(c3)nc(-c3ccoc3)n4C3CCCCC3)C2)cc1 (stereo not drawn) [Entry 1280]
[1]
  IC50: 1 to 5 µM

## O=C(NCC1CCN(C(=O)Nc2ccccc2C(=O)O)CC1)c1ccc2c(c1)nc(-c1ccoc1)n2C1CCCCC1 [Entry 1197]
[1]
  IC50: 10 to 25 µM
